# In the supplement of paper PMC10037445:
# The full ranking holds about 2,900 compounds; the median of “NF-kB SEAP reporter activity, fold change vs agonist alone” is about 0.99, and the highest 2% start at about 2.6. The list shows a part of the results.
# Assays:
# RAW-Dual [1] = assay: NF-kB SEAP reporter activity, fold change vs agonist alone; higher = enhanced NF-kB activity; conditions: cytotoxicity flag (confluency mask): not cytotoxic
# Procedure, shortened: (§1)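 RAW-Dual macrophages were seeded in DMEM at 50,000 cells/well in 384-well plates, given 50 nL of library stock by pin tool, and given a PRR agonist 1 h later. Plates were held at 37 °C, 5% CO2 for 20 hours, after which supernatant was read for IRF by QuantiLuc luminescence and for NF-κB by QuantiBlue absorbance at 620 nm. Reporter activity is expressed as fold change over wells that received agonist alone. A well was called cytotoxic when IncuCyte confluency fell below 70% of agonist controls in both mask sets.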
# RAW-Dual [2] = assay: NF-kB SEAP reporter activity, fold change vs agonist alone; cytotoxicity flag (confluency mask): not cytotoxic; higher = enhanced NF-kB activity
# Procedure, shortened: as §1
# [3] = library stock concentration (final ~1000-fold dilution): 10 mM, agonist: Imiquimod (TLR7) […]
# [4] = library stock concentration (final ~1000-fold dilution): 10 mM, agonist: MPLA (TLR4) […]
# [5] = agonist: ODN 1826 (TLR9) 0.5 ug/mL
# [6] = agonist: Pam2CSK4 (TLR2/6) 0.1 ug/mL
# [7] = agonist: Pam3CSK4 (TLR2/1) 0.1 ug/mL
compound,measurement,setting,value
CN1CCc2nc(C(=O)NC3CC(C(=O)N(C)C)CCC3NC(=O)C(=O)Nc3ccc(Cl)cn3)sc2C1.Cc1ccc(S(=O)(=O)O)cc1.O (stereo not drawn),NF-kB SEAP reporter activity,RAW-Dual [1]; [3],0.978
same,NF-kB SEAP reporter activity,RAW-Dual [1]; [4],1.04
CN1CCN(C2=Nc3cc(Cl)ccc3Nc3ccccc32)CC1 (library stock concentration (final ~1000-fold dilution): 10 mM),NF-kB SEAP reporter activity,RAW-Dual [2]; agonist: LPS (TLR4) 0.1 ug/mL,0.936
same,NF-kB SEAP reporter activity,RAW-Dual [2]; [5],0.6
same,NF-kB SEAP reporter activity,RAW-Dual [2]; [6],0.682
same,NF-kB SEAP reporter activity,RAW-Dual [2]; [7],0.809
CN1CCN(C2=Nc3cc(Cl)ccc3Nc3ccccc32)CC1,NF-kB SEAP reporter activity,RAW-Dual [1]; [3],1.2
same,NF-kB SEAP reporter activity,RAW-Dual [1]; [4],1.2
CCC(=O)OC(OP(=O)(CCCCc1ccccc1)CC(=O)N1CC(C2CCCCC2)CC1C(=O)O)C(C)C (stereo not drawn),NF-kB SEAP reporter activity,"RAW-Dual [1]; library stock concentration (final ~1000-fold dilution): 10 mM water, agonist: Imiquimod (TLR7) […]",0.795
same,NF-kB SEAP reporter activity,"RAW-Dual [1]; library stock concentration (final ~1000-fold dilution): 10 mM water, agonist: MPLA (TLR4) […]",0.935
CCC(=O)OC(OP(=O)(CCCCc1ccccc1)CC(=O)N1CC(C2CCCCC2)CC1C(=O)O)C(C)C (stereo not drawn) (library stock concentration (final ~1000-fold dilution): 10 mM water),NF-kB SEAP reporter activity,RAW-Dual [2]; agonist: LPS (TLR4) 0.1 ug/mL,0.941
same,NF-kB SEAP reporter activity,RAW-Dual [2]; [5],1.05
same,NF-kB SEAP reporter activity,RAW-Dual [2]; [6],1.01
same,NF-kB SEAP reporter activity,RAW-Dual [2]; [7],0.946
Cc1c(Cc2ccc3ccccc3n2)c2cc(F)ccc2n1CC(=O)O (library stock concentration (final ~1000-fold dilution): 10 mM),NF-kB SEAP reporter activity,RAW-Dual [2]; agonist: LPS (TLR4) 0.1 ug/mL,1.03
same,NF-kB SEAP reporter activity,RAW-Dual [2]; [5],1.01
same,NF-kB SEAP reporter activity,RAW-Dual [2]; [6],1.07
same,NF-kB SEAP reporter activity,RAW-Dual [2]; [7],1.04
Cc1c(Cc2ccc3ccccc3n2)c2cc(F)ccc2n1CC(=O)O,NF-kB SEAP reporter activity,RAW-Dual [1]; [3],1.06
same,NF-kB SEAP reporter activity,RAW-Dual [1]; [4],1.07
NC12CC3CC(CC(C3)C1)C2,NF-kB SEAP reporter activity,"RAW-Dual [1]; library stock concentration (final ~1000-fold dilution): 2 mM, agonist: MPLA (TLR4) […]",1.1
NC12CC3CC(CC(C3)C1)C2 (library stock concentration (final ~1000-fold dilution): 2 mM),NF-kB SEAP reporter activity,RAW-Dual [2]; agonist: LPS (TLR4) 0.1 ug/mL,1.08
same,NF-kB SEAP reporter activity,RAW-Dual [2]; [5],0.905
same,NF-kB SEAP reporter activity,RAW-Dual [2]; [6],1.02
same,NF-kB SEAP reporter activity,RAW-Dual [2]; [7],1.19
CC(C)(C)c1cc(C(=O)/C(C#N)=N/Nc2cccc(Cl)c2)no1 (library stock concentration (final ~1000-fold dilution): 10 mM),NF-kB SEAP reporter activity,RAW-Dual [2]; agonist: LPS (TLR4) 0.1 ug/mL,4.18
COC(c1ccccc1)(c1ccccc1)C(Oc1nc(C)cc(C)n1)C(=O)O (stereo not drawn) (library stock concentration (final ~1000-fold dilution): 10 mM),NF-kB SEAP reporter activity,RAW-Dual [2]; agonist: LPS (TLR4) 0.1 ug/mL,1.02
same,NF-kB SEAP reporter activity,RAW-Dual [2]; [5],0.988
same,NF-kB SEAP reporter activity,RAW-Dual [2]; [6],0.873
same,NF-kB SEAP reporter activity,RAW-Dual [2]; [7],1.14
COC(c1ccccc1)(c1ccccc1)C(Oc1nc(C)cc(C)n1)C(=O)O (stereo not drawn),NF-kB SEAP reporter activity,RAW-Dual [1]; [3],0.886
same,NF-kB SEAP reporter activity,RAW-Dual [1]; [4],0.984
Cc1cc(=O)n(-c2ccccc2)n1C (library stock concentration (final ~1000-fold dilution): 10 mM),NF-kB SEAP reporter activity,RAW-Dual [2]; agonist: LPS (TLR4) 0.1 ug/mL,1.03
same,NF-kB SEAP reporter activity,RAW-Dual [2]; [5],1.03
same,NF-kB SEAP reporter activity,RAW-Dual [2]; [6],0.928
same,NF-kB SEAP reporter activity,RAW-Dual [2]; [7],1.28
Cc1cc(=O)n(-c2ccccc2)n1C,NF-kB SEAP reporter activity,RAW-Dual [1]; [3],1.1
same,NF-kB SEAP reporter activity,RAW-Dual [1]; [4],1.05
O=c1cc(-c2ccc(O)cc2)oc2c(C3OCC(O)C(O)C3O)c(O)c(C3OC(CO)C(O)C(O)C3O)c(O)c12 (stereo not drawn) (library stock concentration (final ~1000-fold dilution): 10 mM),NF-kB SEAP reporter activity,RAW-Dual [2]; agonist: LPS (TLR4) 0.1 ug/mL,1.45
same,NF-kB SEAP reporter activity,RAW-Dual [2]; [5],1.03
same,NF-kB SEAP reporter activity,RAW-Dual [2]; [6],1.08
same,NF-kB SEAP reporter activity,RAW-Dual [2]; [7],1.08
O=c1cc(-c2ccc(O)cc2)oc2c(C3OCC(O)C(O)C3O)c(O)c(C3OC(CO)C(O)C(O)C3O)c(O)c12 (stereo not drawn),NF-kB SEAP reporter activity,RAW-Dual [1]; [3],1.02
same,NF-kB SEAP reporter activity,RAW-Dual [1]; [4],1.05
Cc1ccc(-c2ncc(Cl)cc2-c2ccc(S(C)(=O)=O)cc2)cn1,NF-kB SEAP reporter activity,RAW-Dual [1]; [4],1.05
Cc1ccc(-c2ncc(Cl)cc2-c2ccc(S(C)(=O)=O)cc2)cn1 (library stock concentration (final ~1000-fold dilution): 10 mM),NF-kB SEAP reporter activity,RAW-Dual [2]; agonist: LPS (TLR4) 0.1 ug/mL,1.28
same,NF-kB SEAP reporter activity,RAW-Dual [2]; [5],1
same,NF-kB SEAP reporter activity,RAW-Dual [2]; [6],0.96
same,NF-kB SEAP reporter activity,RAW-Dual [2]; [7],0.856
CCOCCn1c(N2CCCN(C)CC2)nc2ccccc21.O=C(O)/C=C/C(=O)O.O=C(O)/C=C/C(=O)O (library stock concentration (final ~1000-fold dilution): 10 mM),NF-kB SEAP reporter activity,RAW-Dual [2]; agonist: LPS (TLR4) 0.1 ug/mL,0.921
same,NF-kB SEAP reporter activity,RAW-Dual [2]; [5],0.836
same,NF-kB SEAP reporter activity,RAW-Dual [2]; [6],1.06
same,NF-kB SEAP reporter activity,RAW-Dual [2]; [7],0.773
CCOCCn1c(N2CCCN(C)CC2)nc2ccccc21.O=C(O)/C=C/C(=O)O.O=C(O)/C=C/C(=O)O,NF-kB SEAP reporter activity,RAW-Dual [1]; [3],1.11
same,NF-kB SEAP reporter activity,RAW-Dual [1]; [4],1.1
CC(=O)NCC(=O)O.CC(=O)NCC(=O)O.N=C(N)c1ccc(N=NNc2ccc(C(=N)N)cc2)cc1 (library stock concentration (final ~1000-fold dilution): 10 mM),NF-kB SEAP reporter activity,RAW-Dual [2]; agonist: LPS (TLR4) 0.1 ug/mL,0.908
same,NF-kB SEAP reporter activity,RAW-Dual [2]; [5],0.922
same,NF-kB SEAP reporter activity,RAW-Dual [2]; [6],1.18
same,NF-kB SEAP reporter activity,RAW-Dual [2]; [7],1.23
CC(=O)NCC(=O)O.CC(=O)NCC(=O)O.N=C(N)c1ccc(N=NNc2ccc(C(=N)N)cc2)cc1,NF-kB SEAP reporter activity,RAW-Dual [1]; [3],0.718
same,NF-kB SEAP reporter activity,RAW-Dual [1]; [4],0.922
O=C(c1cc(-c2cc3c(cc2C(=O)N2Cc4ccccc4CC2CN2CCOCC2)OCO3)n2c1CCCC2)N(c1ccccc1)c1ccc(O)cc1 (stereo not drawn) (library stock concentration (final ~1000-fold dilution): 10 mM),NF-kB SEAP reporter activity,RAW-Dual [2]; agonist: LPS (TLR4) 0.1 ug/mL,0.752
same,NF-kB SEAP reporter activity,RAW-Dual [2]; [5],0.499
same,NF-kB SEAP reporter activity,RAW-Dual [2]; [6],0.22
same,NF-kB SEAP reporter activity,RAW-Dual [2]; [7],0.326
O=C(c1cc(-c2cc3c(cc2C(=O)N2Cc4ccccc4CC2CN2CCOCC2)OCO3)n2c1CCCC2)N(c1ccccc1)c1ccc(O)cc1 (stereo not drawn),NF-kB SEAP reporter activity,RAW-Dual [1]; [3],0.848
same,NF-kB SEAP reporter activity,RAW-Dual [1]; [4],1.17
CC(C)OC(=O)C(C)NP(=O)(OCC1OC(n2ccc(=O)[nH]c2=O)C(C)(F)C1O)Oc1ccccc1 (stereo not drawn),NF-kB SEAP reporter activity,RAW-Dual [1]; [3],1.06
same,NF-kB SEAP reporter activity,RAW-Dual [1]; [4],0.991
CC(C)OC(=O)C(C)NP(=O)(OCC1OC(n2ccc(=O)[nH]c2=O)C(C)(F)C1O)Oc1ccccc1 (stereo not drawn) (library stock concentration (final ~1000-fold dilution): 10 mM),NF-kB SEAP reporter activity,RAW-Dual [2]; agonist: LPS (TLR4) 0.1 ug/mL,1.33
same,NF-kB SEAP reporter activity,RAW-Dual [2]; [5],1.07
same,NF-kB SEAP reporter activity,RAW-Dual [2]; [6],1.14
same,NF-kB SEAP reporter activity,RAW-Dual [2]; [7],1.08
